Out of some 390,000 compounds screened, about 4,700 (1.2%) were called active. Inconclusive results (about 4%) are left out. Calls come from the whole dose curve; as a rule, active = well fitted inhibition curve with a large enough effect; inconclusive = small, poorly fitted or top-dose-only effect, or another doubt; inactive = no such curve, though single readings can be large or run the other way. This is a selection; strong and weak results do not stand in their true shares. Some structures have more than one record in an assay (separate samples or runs), and their calls can disagree. Where a SMILES comes first, the peptide text is derived from it. Bridges are numbered along the chain shown (N, C = ends). [ ]: non-standard residue; d: D form. The star is where a group is joined. X1 = CCC(C)C(N)C1=NC(C(=O)*)CS1; dOrn = NCCC[C@@H](N)C(=O)O
The compounds below were run against DNA polymerase eta (Homo sapiens) (UniProt Q9Y253) (assay: qHTS for Inhibitors of Polymerase Eta). Conditions: recombinant Pol eta, fluorescent DNA replication assay; series mostly up to 114 µM; activity change, negative = inhibition: at the top concentration.
Procedure, shortened: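 Pol eta (10 nM) was preincubated with compounds for 15 min at room temperature, after which fluorescent replication substrate (50 nM final) was added to start the reaction. Fluorescence was read kinetically at 0 and 10 min.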
% is set by controls: 0 for no effect and ±100 for the full control effect; potency is the fitted concentration of half-maximal effect.

UniProt Q9Y253, sequence (Q9Y253 whole entry, looked up): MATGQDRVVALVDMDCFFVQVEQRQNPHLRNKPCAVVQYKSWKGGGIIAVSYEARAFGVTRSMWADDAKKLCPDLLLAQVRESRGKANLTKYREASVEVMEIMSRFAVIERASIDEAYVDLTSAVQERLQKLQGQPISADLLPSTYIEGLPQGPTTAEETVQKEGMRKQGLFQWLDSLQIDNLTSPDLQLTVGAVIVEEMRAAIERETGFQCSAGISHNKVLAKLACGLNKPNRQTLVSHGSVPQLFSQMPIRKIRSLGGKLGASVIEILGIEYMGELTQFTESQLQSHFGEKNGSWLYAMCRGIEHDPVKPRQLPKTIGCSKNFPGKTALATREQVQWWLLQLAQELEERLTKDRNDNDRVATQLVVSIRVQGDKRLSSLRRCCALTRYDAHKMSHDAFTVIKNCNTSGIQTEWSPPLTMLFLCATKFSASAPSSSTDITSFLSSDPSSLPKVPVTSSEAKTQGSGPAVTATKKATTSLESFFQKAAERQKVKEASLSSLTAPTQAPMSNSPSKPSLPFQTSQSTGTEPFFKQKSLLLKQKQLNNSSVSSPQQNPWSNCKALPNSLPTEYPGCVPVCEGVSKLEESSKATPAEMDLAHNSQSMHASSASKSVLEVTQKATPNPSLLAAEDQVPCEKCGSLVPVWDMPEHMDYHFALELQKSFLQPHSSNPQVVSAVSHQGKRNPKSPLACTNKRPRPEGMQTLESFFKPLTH

Compound	activity change, negative = inhibition	Potency
Cc1ccc(C)c(N2CCN(C(=O)c3nn(C)c4c3CS(=O)(=O)c3ccccc3-4)CC2)c1	inactive: -10.5%	–
Fc1ccc(Nc2c(-c3ccco3)nc3ccccn23)cc1	inactive: -1.79%	–
O=C(NN1C(=O)/C(=C/c2ccc(O)c([N+](=O)[O-])c2)SC1=S)c1ccccc1Cl	inactive: -17.5%	–
Cc1ccc(-c2csc3ncnc(Nc4ccc(C(=O)O)cc4)c23)cc1	inactive: -8.67%	–
CC(C)C[C@@H](CNCC(=O)[C@H](Cc1c[nH]c2ccccc12)NC(=O)c1[nH]cnc1C(=O)N[C@H](CN)CC(C)C)NC(=O)c1nc[nH]c1C(=O)N[C@@H](CC(=O)O)C(=O)O	–	active: 50.1 µM
COc1ccccc1NC(=O)C1=C(C)Nc2nc(SCc3cccc(F)c3)nn2C1c1ccc(C(=O)O)cc1 (stereo unspecified)	inactive: 13.4%	–
COc1ccc(C(=O)Nc2nc3c(s2)Cc2cc(OC)ccc2-3)cc1	inactive: 1.13%	–
COc1cccc(NC(=O)Cn2c(=O)n(CCC(=O)NC3CCN(Cc4ccccc4)CC3)c(=O)c3ccccc32)c1	inactive: 43.9%	–
O=C(O)C(Cc1ccccc1)NS(=O)(=O)c1ccc2c(c1)OCCO2 (stereo unspecified)	inactive: 6.56%	–
c1ccc(Cn2c(SCc3nc4ccccc4s3)nnc2-c2ccco2)cc1	–	active: 14.1 µM
Cc1cc(C)nc(NC(=O)c2c(F)c(F)c(F)c(C(=O)Nc3cc(C)cc(C)n3)c2F)c1	inactive: 45.2%	–
Cc1cccc(NC2=NC(C)(C)N=C(N)N2)c1C	inactive: 6.94%	–
Cc1ccc(-c2cc(-c3ccco3)c(C#N)c(=O)[nH]2)cc1	–	active: 28.2 µM
NS(=O)(=O)c1ccc(-c2ccc(/C=N/Nc3ccc(C(=O)O)cc3)o2)cc1	–	active: 28.2 µM
O=C(NCc1ccc(OC(F)(F)F)cc1)c1cccc2c1C(=O)c1ccc(N3CCCCC3)cc1S2(=O)=O	inactive: 0.241%	–
CC(CC(=O)Nc1ccc(Br)cc1F)S(=O)(=O)c1ccc2c(c1)NC(=O)CO2 (stereo unspecified)	inactive: -14.6%	–
Cc1ccc(C2=N/C(=C/c3cccs3)C(=O)N2Nc2ccccc2)cc1	inactive: 0.293%	–
O=C(O)C(NS(=O)(=O)c1cccc2nsnc12)c1ccccc1 (stereo unspecified)	inactive: 45.6%	–
Cc1c(N2C(=O)/C(=C/c3ccc(N(C)C)cc3)N(C)C2=S)c(=O)n(-c2ccccc2)n1C	inactive: -21%	–
Cc1ccc(NC(=O)CSc2nc3c([nH]c4ccccc43)c(=O)n2-c2ccccc2)c(C)c1	inactive: 17.1%	–
CCCCn1c(NCc2ccc(N(C)C)cc2)nc2ccccc21	inactive: -9.12%	–
CCCc1[nH]n(-c2nc3ccccc3s2)c(=O)c1C=NCCCOC	inactive: 33%	–

Compound	activity change, negative = inhibition	Potency
O=C(O)/C(=C\c1ccco1)NC(=O)c1ccccc1	inactive: 3.22%	–
O=C(CSc1nnc(CNc2ccc(Cl)cc2)o1)Nc1nc2ccccc2s1	inactive: -5.26%	–
Cc1ccccc1C(=O)Nc1ccc2c(c1)CCCN2C(=O)c1cccs1	inactive: -16.3%	–
CC(=O)C[C@@H](O)CC(=O)[C@H]1OC(=O)[C@@H](C)C/C=C\Cc2ccccc21	inactive: -22.6%	–
O=C(Cc1cccs1)NC1CC(=O)N(c2ccc(Cl)cc2)C1 (stereo unspecified)	inactive: 17.4%	–
CC(=O)N(c1c(C)n(C)n(-c2ccccc2)c1=O)C1(C(=O)NC2CCCC2)CCCCC1	inactive: -12.8%	–
N#C/C(=C\C1=C(N2CCOCC2)C(=C/c2cccc([N+](=O)[O-])c2)/CC1)C(=O)Nc1ccccc1F	inactive: -27.2%	–
CCOc1ccc(OCC)c(Nc2nc3ccc(C(=O)c4ccccc4)cc3n3cnnc23)c1	inactive: 20.1%	–
O=C(Nc1nncs1)C1CCCC1	inactive: 39.5%	–
C=CC[C@@H](CC(=O)OC(C)(C)C)C(=O)OC[C@H]1CCCN1C(=O)[C@@H](CC=C)CC(=O)N(CCO)Cc1ccccc1	inactive: -14.4%	–
O=C(O)Cc1ccc(C(=O)CSc2ccccc2)s1	–	active: 20 µM
COc1ccc(NC(=O)/C(C#N)=C/C=C/c2ccco2)cc1	inactive: -3.09%	–
CCO[C@@H]1OC(C(=O)N2CCN(Cc3ccc4c(c3)OCO4)CC2)=C[C@H](c2ccc(C(F)(F)F)cc2)[C@H]1CCCO	inactive: -17.7%	–
O=C(Nc1ccc(Cl)cc1)N1CCN(c2ccc3nnc(-c4ccc(F)cc4)n3n2)CC1	inactive: -9.48%	–
COc1ccccc1-c1ccc(/C=C2\C=CC(=O)O2)o1	–	active: 25.1 µM
Cc1c(Cl)cccc1NS(=O)(=O)c1ccc2c(c1)C1C=CCC1C(c1ccc(C(=O)O)cc1)N2 (stereo unspecified)	–	active: 2 µM
CCn1cc(C(=O)O)c(=O)c2cc(F)c(N3CCN(S(=O)(=O)c4ccc5c(c4)OCCO5)CC3)cc21	inactive: 34.1%	–
Cc1ccc(OCC(=O)NCC(=O)OCc2cc(=O)n3nc(C(C)C)sc3n2)cc1	inactive: 26.9%	–
CCOC(=O)c1cc(=O)c2ccc(OCC(=O)Nc3ccc(F)cc3)cc2o1	inactive: 20.7%	–
Cc1nn(C(C)C(=O)NC2C(=O)N3C(C(=O)O)=C(CSc4nnnn4C)CSC23)cc1Cl (stereo unspecified)	–	active: 20 µM
COc1ccc(CC(=O)Nc2ccc(N3CCOCC3)cc2)cc1S(=O)(=O)N1CCOCC1	inactive: 30.2%	–
COc1ccc(NC(=O)Cc2cccs2)c(OC)c1	inactive: 17.3%	–

Compound	activity change, negative = inhibition	Potency
COc1cc(C2N(c3ccccn3)C(=O)C3CCCN32)cc(OC)c1OC (stereo unspecified)	inactive: -8.43%	–
Cc1nn(Cc2ccc(F)cc2)c(C)c1NC(=O)c1noc2c1CCc1ccccc1-2	inactive: -20%	–
N=C1C(c2nc3ccccc3[nH]2)=C(O)CN1c1ccc(CC(=O)O)cc1	–	active: 79.4 µM
CC(=O)c1ccc(NC(=O)CSc2nnc3c(n2)[nH]c2ccccc23)cc1	–	active: 44.7 µM
COc1ccc(N(C)C(=O)c2oc(=O)c3ccccc3c2-c2ccc(C)cc2)c(OC)c1	inactive: -6.76%	–
Cc1ccc(CNC(=O)CN2N=C(c3ccc(C)cc3)CCC2=O)cc1	inactive: 20.1%	–
O=C(O)c1ccccc1Nc1cccc(OCc2ccc3ccccc3n2)c1	inactive: 2.66%	–
CCOC(=O)c1ccccc1NC(=O)c1cn(CC)c2nc(C)ccc2c1=O	inactive: 38.8%	–
C[C@@H](NC(=O)c1cc2c([nH]c3ccccc32)c(-c2ccccc2)n1)C(=O)O	inactive: 10.8%	–
C[C@@H]1COC(=O)[C@H](NC(=O)OCC2c3ccccc3-c3ccccc32)C/C=C\C[C@@H](CC(=O)N[C@@H](CO)Cc2ccccc2)C(=O)N1	inactive: -11.2%	–
CCCC(=O)c1cc2c(cc1NC(=O)c1ccccc1F)OCCO2	inactive: -19.1%	–
O=C(O)CC1CCC(=C(Cl)Cl)C1 (stereo unspecified)	–	active: 50.1 µM
CCC(C)C(N)C1=NC(C(=O)N[C@@H](CC(C)C)C(=O)N[C@H](CCC(=O)O)C(=O)N[C@H](C(=O)N[C@H]2CCCCNC(=O)[C@H](CC(N)=O)NC(=O)[C@@H](CC(=O)O)NC(=O)[C@H](Cc3cnc[nH]3)NC(=O)[C@@H](Cc3ccccc3)NC(=O)[C@H]([C@@H](C)CC)NC(=O)[C@@H](CCCN)NC2=O)[C@@H](C)CC)CS1 (stereo partly specified) (X1-L[dE]IK[dOrn]I[dF]H[dD]N; lactam 4-C)	inactive: -0.728%	–
CNC(=O)NC(=O)CSc1ncc(C(F)(F)F)cc1Cl	inactive: 10.1%	–
O=C(O)c1cc(S(=O)(=O)Nc2ccc3oc(=O)sc3c2)ccc1O	–	active: 14.1 µM
COc1ccc2c3c([nH]c2c1)C1CC2C(CC(O)C(OC)C2C(=O)O)CN1CC3 (stereo unspecified)	inactive: -7.34%	–
c1ccc(CSc2nnc3ccc(-c4ccncc4)nn23)nc1	inactive: 24.2%	–
Cc1cccc(NC(=O)CSc2nc3c(sc4ccccc43)c(=O)n2CCCC(=O)NC2CCCC2)c1	inactive: 18.7%	–
CSCCC(NC(=O)/C(=C/c1ccco1)NC(=O)c1ccco1)C(=O)O (stereo unspecified)	inactive: -22.7%	–
O=c1cc(-c2ccc(O)cc2)oc2cc(O)c([C@@H]3O[C@H](CO)[C@@H](O)[C@H](O)[C@H]3O)c(O)c12	inactive: 8.8%	–
CN(CC(=O)Nc1ccc(F)cc1)C(=O)CCc1nc2sc3c(c2c(=O)[nH]1)CCCC3	–	active: 15.8 µM
COc1ccc(N2CCN(c3ncnc4c3cnn4C)CC2)cc1	inactive: 20.1%	–

Compound	activity change, negative = inhibition	Potency
O=C(O)c1cc(O)c2c(c1)[C@H]([C@H]1c3cc(C(=O)O)cc(O)c3C(=O)c3c(O[C@@H]4O[C@H](CO)[C@@H](O)[C@H](O)[C@H]4O)cccc31)c1cccc(OC3O[C@H](CO)[C@@H](O)[C@H](O)[C@H]3O)c1C2=O (stereo partly specified)	inactive: -99.1%	–
COc1ccc([C@@H]2CC(=O)c3c(O)cc(O[C@@H]4OC(CO[C@@H]5OC(C)[C@H](O)[C@@H](O)[C@H]5O)[C@@H](O)[C@H](O)[C@H]4O)cc3O2)cc1O (stereo partly specified)	inactive: -10%	–
NC(C(=O)N[C@@H]1C(=O)N2C(C(=O)O)=C(Cl)CS[C@H]12)c1ccccc1 (stereo partly specified)	inactive: -1.2% [at 57.1 µM]	–
O=Nc1c(O)n(Cc2ccccc2)c2ccccc12	inactive: 33.5%	–
CCOC(=O)CSc1ncnc2c1c(-c1ccccc1)cn2-c1ccc(OC)cc1	inactive: -0.704%	–
COc1ccc(NC(=O)c2c[nH]n3c(=O)cc(C4CCN(C(=O)OC(C)(C)C)CC4)nc23)cc1Cl	–	active: 89.1 µM
O=C(O)CCc1ccc(-c2ccc(Br)cc2)n1Cc1ccco1	–	active: 56.2 µM
O=C1/C(=C/c2ccco2)SC(=S)N1C1CCS(=O)(=O)C1 (stereo unspecified)	inactive: -8.27%	–
COCCNS(=O)(=O)c1ccc2c(c1)n(C)c(=O)n2C	inactive: 148%	–
Cc1cccc(C(=O)Nc2nnc(S(=O)(=O)N(C)Cc3ccco3)s2)c1	inactive: -24.3%	–
O=C(C1CCCN(S(=O)(=O)c2ccc(Br)s2)C1)N1CCN(c2ccccc2)CC1 (stereo unspecified)	inactive: -15.7%	–
C=CCOC(=O)C1=C[C@H](c2ccc(C(F)(F)F)cc2)C[C@H](OCCCCO)O1	inactive: -3.21%	–
O=C(COc1ccccc1)Nc1nnc(S(=O)(=O)N2CCCC2)s1	inactive: -10.1%	–
COc1cccc(N2CC(O)Cn3c2nc2c3c(=O)[nH]c(=O)n2C)c1 (stereo unspecified)	inactive: 4.16%	–
O=c1[nH]c(-c2ccccc2)ncc1Oc1ccccc1	inactive: 30.9%	–
C=CCOC(=O)C1=C[C@H](c2ccc3c(c2)OCO3)C[C@H](OCCCCO)O1	inactive: -18.3%	–
COc1cc(/C=N/NC(=O)c2cncc(Br)c2)cc([N+](=O)[O-])c1O	inactive: 30.4%	–
COc1ccc(-c2nnn(-c3ccc(Cl)cc3Cl)c2N)cc1	inactive: 29.6%	–
COc1ccc2c(c1)CC(NC(=O)Nc1c(C)cc(C)cc1C)CO2 (stereo unspecified)	inactive: 16.3%	–
COc1ccc(NS(=O)(=O)c2cc([N+](=O)[O-])ccc2N/N=C\c2c(C)[nH]c3ccccc23)cc1	inactive: -10.7%	–

From PubChem BioAssay AID588591 (National Center for Advancing Translational Sciences (NCATS), 2011)
